These results are taken from the supplement of paper PMC9446081.

The structures appear in SMILES notation. Out of some 39,000 compounds screened, about 220 (0.56%) showed activity. The list shows a part of the results.
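Note: static incubation at 37 °C against the wild-type strain, values averaged over two biological replicates.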

The experiment has as its system Escherichia coli K-12 BW25113. In words: relative growth (OD600 normalised to plate interquartile mean) (fraction); higher = less growth inhibition, active = 0.2 or less. To be noted: 50 µM; LB; incubation time: overnight (16-24 h).
`C[C@H]1CCCCO[C@H](CN(C)C(=O)NC2CCCCC2)[C@@H](C)CN([C@@H](C)CO)C(=O)c2cc(NC(=O)Cc3ccccc3)ccc2O1`: the relative growth is inactive: 0.987.
The value for `C[C@H](CO)N1C[C@H](C)[C@H](CN(C)S(=O)(=O)c2ccc(F)cc2)Oc2ccc(NS(=O)(=O)c3ccccc3)cc2CC1=O` was inactive: 1.02.
Then `COc1ccc(S(=O)(=O)Nc2cccc3c2O[C@@H](CN(C)CC2CC2)[C@H](C)CN([C@@H](C)CO)C3=O)cc1`, with inactive: 0.992.
On to `C[C@@H]1CN([C@@H](C)CO)C(=O)CCCn2cc(nn2)CO[C@H]1CN(C)C(=O)Nc1ccnc(N2CCOCC2)c1`, for which the relative growth is inactive: 0.969.
Then `C[C@H]1CN([C@@H](C)CO)C(=O)c2cc(NC(=O)Nc3cccc4ccccc34)ccc2O[C@@H]1CN(C)C(=O)Nc1ccc(C(F)(F)F)cc1`, with inactive: 1.02; and `CCOC(=O)Cc1csc(/C(=N/O)C(N)=O)n1`, with inactive: 1.06; and `C[C@H](CO)N1C[C@H](C)[C@H](CN(C)S(=O)(=O)c2cn(C)cn2)Oc2ccc(NC(=O)NC3CCCCC3)cc2C1=O`, with inactive: 0.982.
Take `O=C(ON1C(=O)CCC1=O)c1ccccc1`: the relative growth was inactive: 0.986.
`Cn1nnc2c(Cl)ncnc21`: the relative growth is inactive: 0.981.
In the case of `CC(C)(C)[S@](=O)N1Cc2cc(C(=O)NCc3ccncc3)nc(-c3cccc(-c4cccc(C#N)c4)c3)c2[C@@H]1CCO`, the relative growth is inactive: 1.
Then `C[C@H]1CN([C@@H](C)CO)C(=O)c2cc(NC(=O)Nc3ccc4c(c3)OCO4)ccc2O[C@H]1CN(C)Cc1ccc(-c2ccccc2)cc1`, with inactive: 0.981; and `COc1ccc(NC(=O)N[C@@H]2CC[C@H](CCNC(=O)CN3CCOCC3)O[C@H]2CO)cc1`, with inactive: 1.01; and `C[C@@H]1CCCCO[C@H](CN(C)S(=O)(=O)c2ccc(Cl)cc2)[C@H](C)CN([C@H](C)CO)C(=O)c2cc(NS(=O)(=O)c3ccc(F)cc3)ccc2O1`, with inactive: 1.04.
The value for `C[C@@H]1CN([C@H](C)CO)C(=O)c2cc(NC(=O)c3ccccc3)ccc2O[C@@H](C)CCCCO[C@H]1CN(C)C(=O)Nc1ccccc1` was inactive: 1; that for `C[C@H](CO)N1C[C@H](C)[C@H](CN(C)C(=O)Nc2ccc3c(c2)OCO3)Oc2ccc(NC(=O)Nc3cccc4ccccc34)cc2C1=O` was inactive: 1.02; that for `O=C(C1CC1)N1CCCN(C(=O)C2CC2)CC1` was inactive: 0.998.
The value for `COc1ccc([Si](C)(C)[C@@H]2[C@@H](CCn3cc([C@H](O)c4ccccc4)nn3)O[C@]3(C(=O)N(C)c4c(Br)cc(C)cc43)[C@H]2C)cc1` was inactive: 1.01.
On to `COC(=O)C[C@@H]1C(=O)NCCN1C(=O)NS(=O)(=O)c1ccc(C)cc1`, for which the relative growth is inactive: 0.886.
As for `Cc1noc(C)c1NC(=O)Nc1ccc2c(c1)C(=O)N([C@H](C)CO)C[C@H](C)[C@H](CN(C)S(=O)(=O)c1cn(C)cn1)O2`, the relative growth is inactive: 1.
`COCC#Cc1cnc2c(c1)C(=O)N([C@H](C)CO)C[C@@H](C)[C@H](CN(C)C(=O)CN1CCOCC1)O2`: the relative growth is inactive: 1.02.
Turning to `C[C@@H]1CN([C@H](C)CO)C(=O)c2cc(NC(=O)Nc3ccc(C(F)(F)F)cc3)ccc2O[C@@H]1CN(C)S(=O)(=O)c1ccc(F)cc1`, the relative growth is inactive: 1.03.
As for `O=c1nc[nH]c2n[nH]cc12`, the relative growth is inactive: 1.03.
The value for `C=CCN(Cc1ccccc1)C(=O)[C@@H]1N(CCOCCO)C(=O)[C@@H]2[C@H](C(=O)O)[C@@H]3C=C[C@@]21O3` was inactive: 1.03; that for `C[C@H]1CN([C@@H](C)CO)C(=O)c2cc(NC(=O)Cn3cnnn3)ccc2O[C@H]1CN(C)S(=O)(=O)c1cccs1` was inactive: 0.979; that for `COc1ccc2c3c(n(c2c1)C)[C@@H](CO)N(C[C@]13CN(C1)C(=O)CN1CCOCC1)C(=O)Nc1ccc(cc1)F` was inactive: 0.977.
Then `CCC(=O)Nc1ccc2c(c1)C(=O)N(C)C[C@H](OC)[C@H](C)CN(C(=O)CN1CCOCC1)[C@H](C)CO2`, with inactive: 0.974; and `C[C@@H]1CN([C@@H](C)CO)C(=O)Cc2cc(NC(=O)Nc3ccc(C(F)(F)F)cc3)ccc2O[C@H]1CN(C)Cc1ccc2c(c1)OCO2`, with inactive: 1.04; and `C[C@@H]1CN([C@@H](C)CO)C(=O)Cc2cc(NC(=O)Nc3cccc4ccccc34)ccc2O[C@@H]1CN(C)Cc1ccc2c(c1)OCO2`, with inactive: 1.01.
`C[C@@H]1CN([C@@H](C)CO)C(=O)c2cc(NC(=O)CCC(F)(F)F)ccc2O[C@H]1CN(C)Cc1ccc(Oc2ccccc2)cc1`: the relative growth is inactive: 1.01.
Then `COc1ccc(CN(C)C[C@H]2OCCCC[C@H](C)Oc3ccc(NC(=O)NC4CCCCC4)cc3C(=O)N([C@@H](C)CO)C[C@H]2C)cc1`, with inactive: 1.01.
Then `C[C@H]1CN([C@@H](C)CO)C(=O)c2cc(NC(=O)NC3CCCCC3)ccc2O[C@@H]1CN(C)Cc1ccc(Cl)c(Cl)c1`, with inactive: 1.02; and `C[C@H](CO)N1C[C@H](C)[C@@H](CN(C)Cc2ccc(Cl)c(Cl)c2)Oc2c(NC(=O)Nc3ccc(F)cc3)cccc2C1=O`, with inactive: 0.995; and `C[C@@H]1CCCCO[C@H](CN(C)S(=O)(=O)c2ccc(Cl)cc2)[C@H](C)CN([C@H](C)CO)C(=O)c2cc(NC(=O)c3ccncc3)ccc2O1`, with inactive: 1.01.
With `C[C@H](CO)N1C[C@H](C)[C@@H](CN(C)Cc2ccc(C(F)(F)F)cc2)Oc2ccc(NS(=O)(=O)c3ccc(Cl)cc3)cc2C1=O`, the relative growth is inactive: 1.02.
The value for `C[C@H](NC(=O)N(C)C[C@@H]1OCc2ccccc2-c2ccccc2C(=O)N([C@H](C)CO)C[C@@H]1C)c1ccccc1` was inactive: 1.03; that for `CC(C)[Si]1(C(C)C)OCc2cc(-c3ccc(-c4ccc(Cl)c(Cl)c4)o3)nc(-c3ccccc3)c21` was inactive: 0.957.
The value for `CCNC(=O)C[C@@H]1CC[C@@H](NC(=O)C2CCOCC2)[C@@H](CO)O1` was inactive: 1.01; that for `O=C(CN1CCOCC1)N[C@@H]1CC[C@H](CCNC(=O)Nc2cc(F)ccc2F)O[C@@H]1CO` was inactive: 0.966.
The value for `CSCC[C@H](NC(=O)[C@H](CCC(=O)O)NC(=O)[C@H](CCC(=O)O)NC(C)=O)C(=O)N[C@@H](CCC(N)=O)C(=O)N[C@@H](CCCNC(=N)N)C(=O)N[C@@H](CCCNC(=N)N)C(N)=O` was inactive: 1.03.
